# Reference: the supplement of paper PMC8728848
# Some of the results follow.
# What was measured:
# Experiment in all cases: glycan array binding signal (z-score within array); higher = stronger binding
# Details in all cases: glycan notation: IUPAC condensed, linker removed
# [1] = biological target: GlcNAc(b1-4)GlcNAc
# Method in brief: (§1)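 Glycan array binding is given as a within-array Z-score, which can be read as non-binding when negative. The arrays, 3228 of them, came from the Consortium for Functional Glycomics database and were retained only where the protein sequence was available. Z-scores were averaged across arrays of the same protein sequence at different concentrations or buffers and across linkers.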
# [2] = biological target: GlcNAc(b1-4)GlcNAc(b1-4)GlcNAc
# Method in brief: as §1
# [3] = biological target: GlcNAc(b1-4)GlcNAc(b1-4)GlcNAc(b1-4)GlcNAc(b1-4)GlcNAc
# Method in brief: as §1
# [4] = biological target: GlcNAc(b1-4)GlcNAc(b1-4)GlcNAc(b1-4)GlcNAc(b1-4)GlcNAc(b1-4)GlcNAc
# Method in brief: as §1
# [5] = biological target: GlcNAc(b1-4)[GlcNAc(b1-6)]GalNAc
# Method in brief: as §1
# [6] = biological target: GlcNAc(b1-6)Gal(b1-4)GlcNAc
# Method in brief: as §1
# [7] = biological target: GlcNAc(b1-6)GalNAc
# Method in brief: as §1
# [8] = biological target: GlcNAc3Prop(b1-4)GlcNAc
# Method in brief: as §1
# [9] = biological target: GlcNAc6S(b1-3)Gal(b1-4)GlcNAc
# Method in brief: as §1
# [10] = biological target: Kdn(a2-3)Gal(b1-3)GalNAc
# Method in brief: as §1
# [11] = biological target: Kdn(a2-3)Gal(b1-3)GlcNAc
# Method in brief: as §1
# [12] = biological target: Kdn(a2-3)Gal(b1-4)Glc
# Method in brief: as §1
# [13] = biological target: Kdn(a2-3)Gal(b1-4)GlcNAc
# Method in brief: as §1
# [14] = biological target: Kdn(a2-3)Gal(b1-4)[Fuc(a1-3)]GlcNAc
# Method in brief: as §1
# [15] = biological target: Kdn(a2-6)Gal(b1-4)GlcNAc
# Method in brief: as §1
# [16] = biological target: Man(a1-2)Man(a1-2)Man(a1-3)Man
# Method in brief: as §1
# [17] = biological target: Man(a1-2)Man(a1-2)Man(a1-6)[Man(a1-3)]Man
# Method in brief: as §1
# [18] = biological target: Man(a1-2)Man(a1-3)Man
# Method in brief: as §1
# [19] = biological target: Man(a1-2)Man(a1-3)[Man(a1-2)Man(a1-6)]Man
# Method in brief: as §1
# [20] = biological target: Man(a1-2)Man(a1-3)[Man(a1-2)Man(a1-6)]Man(a1-6)[Man(a1-2)Man(a1-2)Man(a1-3)]Man
# Method in brief: as §1
# [21] = biological target: Man(a1-2)Man(a1-3)[Man(a1-2)Man(a1-6)]Man(a1-6)[Man(a1-2)Man(a1-2)Man(a1-3)]Man(b1-4)GlcNAc(b1-4)GlcNAc
# Method in brief: as §1
# [22] = biological target: Man(a1-2)Man(a1-3)[Man(a1-6)]Man(a1-6)[Man(a1-2)Man(a1-3)]Man(b1-4)GlcNAc(b1-4)GlcNAc
# Method in brief: as §1
# [23] = biological target: Man(a1-2)Man(a1-6)[Man(a1-3)]Man(a1-6)[Man(a1-2)Man(a1-2)Man(a1-3)]Man
# Method in brief: as §1
# [24] = biological target: Man(a1-2)Man(a1-6)[Man(a1-3)]Man(a1-6)[Man(a1-2)Man(a1-2)Man(a1-3)]Man(b1-4)GlcNAc(b1-4)GlcNAc
# Method in brief: as §1
# [25] = biological target: Man(a1-3)[Man(a1-6)]Man
# Method in brief: as §1
# [26] = biological target: Man(a1-3)[Man(a1-6)]Man(a1-6)[Man(a1-2)Man(a1-3)]Man(b1-4)GlcNAc(b1-4)GlcNAc
# Method in brief: as §1
# [27] = biological target: Man(a1-3)[Man(a1-6)]Man(a1-6)[Man(a1-3)]Man
# Method in brief: as §1
# [28] = biological target: Man(a1-3)[Man(a1-6)]Man(a1-6)[Man(a1-3)]Man(b1-4)GlcNAc(b1-4)GlcNAc
# Method in brief: as §1
# [29] = biological target: Man(a1-3)[Man(a1-6)]Man(b1-4)GlcNAc(b1-4)GlcNAc
# Method in brief: as §1
# [30] = biological target: Man(a1-6)Man
# Method in brief: as §1
# [31] = biological target: Man(b1-4)GlcNAc
# Method in brief: as §1
# [32] = biological target: Neu5Ac(a2-3)Gal
# Method in brief: as §1
# [33] = biological target: Neu5Ac(a2-3)Gal(b1-3)GalNAc
# Method in brief: as §1
# [34] = biological target: Neu5Ac(a2-3)Gal(b1-3)GalNAc(b1-3)Gal(a1-4)Gal(b1-4)Glc
# Method in brief: as §1
# [35] = biological target: Neu5Ac(a2-3)Gal(b1-3)GalNAc(b1-3)Gal(b1-4)GlcNAc
# Method in brief: as §1
# [36] = biological target: Neu5Ac(a2-3)Gal(b1-3)GalNAc(b1-4)[Neu5Ac(a2-3)]Gal(b1-4)Glc
# Method in brief: as §1
# [37] = biological target: Neu5Ac(a2-3)Gal(b1-3)GalNAc6S
# Method in brief: as §1
# [38] = biological target: Neu5Ac(a2-3)Gal(b1-3)GlcNAc
# Method in brief: as §1
# [39] = biological target: Neu5Ac(a2-3)Gal(b1-3)GlcNAc(b1-3)Gal(b1-3)GlcNAc
# Method in brief: as §1
# [40] = biological target: Neu5Ac(a2-3)Gal(b1-3)GlcNAc6S
# Method in brief: as §1
# [41] = biological target: Neu5Ac(a2-3)Gal(b1-3)[Fuc(a1-4)]GlcNAc
# Method in brief: as §1
# [42] = biological target: Neu5Ac(a2-3)Gal(b1-3)[Fuc(a1-4)]GlcNAc(b1-3)Gal(b1-3)[Fuc(a1-4)]GlcNAc
# Method in brief: as §1
# [43] = biological target: Neu5Ac(a2-3)Gal(b1-3)[Fuc(a1-4)]GlcNAc(b1-3)Gal(b1-4)[Fuc(a1-3)]GlcNAc
# Method in brief: as §1
# [44] = biological target: Neu5Ac(a2-3)Gal(b1-3)[Neu5Ac(a2-3)Gal(b1-4)]GlcNAc
# Method in brief: as §1
# [45] = biological target: Neu5Ac(a2-3)Gal(b1-3)[Neu5Ac(a2-6)]GalNAc
# Method in brief: as §1
binder,measurement,setting,value
"StdA (Salmonella typhimurium), Q8Z3Z0 (protein) MAAAGMMYGASVFAADTTPTAGPFGSGKILFTGTITNSPCDIAPGDDAITVPFGQISYRKLNTANATTDSKPFTIHLQNCAFDPNETTIAGSAGKMSKVTVSFSGTADTSGKAYVSTGSAQHVGVQLLKGDNTSLITPNTPMPDGDAQQLQAGNNELNFFARLIALTDAATPGDVNASVTYTLKYL",glycan array binding signal (z-score),[1],0.148
same,glycan array binding signal (z-score),[2],0.166
same,glycan array binding signal (z-score),[3],-0.249
same,glycan array binding signal (z-score),[4],-0.944
same,glycan array binding signal (z-score),[5],-0.958
same,glycan array binding signal (z-score),[6],0.557
same,glycan array binding signal (z-score),[7],-0.631
same,glycan array binding signal (z-score),[8],-0.424
same,glycan array binding signal (z-score),[9],1.03
same,glycan array binding signal (z-score),[10],0.344
same,glycan array binding signal (z-score),[11],-0.107
same,glycan array binding signal (z-score),[12],0.211
same,glycan array binding signal (z-score),[13],1.56
same,glycan array binding signal (z-score),[14],0.403
same,glycan array binding signal (z-score),[15],-0.547
same,glycan array binding signal (z-score),[16],-0.737
same,glycan array binding signal (z-score),[17],-0.088
same,glycan array binding signal (z-score),[18],-0.691
same,glycan array binding signal (z-score),[19],-0.749
same,glycan array binding signal (z-score),[20],-0.236
same,glycan array binding signal (z-score),[21],-0.501
same,glycan array binding signal (z-score),[22],1.34
same,glycan array binding signal (z-score),[23],1.21
same,glycan array binding signal (z-score),[24],-0.273
same,glycan array binding signal (z-score),[25],-0.521
same,glycan array binding signal (z-score),[26],-0.109
same,glycan array binding signal (z-score),[27],-0.44
same,glycan array binding signal (z-score),[28],-0.131
same,glycan array binding signal (z-score),[29],-0.463
same,glycan array binding signal (z-score),[30],-0.416
same,glycan array binding signal (z-score),[31],-0.303
same,glycan array binding signal (z-score),[32],-0.386
same,glycan array binding signal (z-score),[33],-0.736
same,glycan array binding signal (z-score),[34],-0.426
same,glycan array binding signal (z-score),[35],-0.265
same,glycan array binding signal (z-score),[36],0.041
same,glycan array binding signal (z-score),[37],-0.759
same,glycan array binding signal (z-score),[38],-0.472
same,glycan array binding signal (z-score),[39],0.09
same,glycan array binding signal (z-score),[40],-0.5
same,glycan array binding signal (z-score),[41],-0.342
same,glycan array binding signal (z-score),[42],-0.311
same,glycan array binding signal (z-score),[43],-0.445
same,glycan array binding signal (z-score),[44],-0.435
same,glycan array binding signal (z-score),[45],0.014
